Experimental data: patent publication US20130101595A1 (AbbVie / Abbott, published 2013)

What was measured:
[1] = biological target: T1, recombinant human IL-18 (rhIL-18) (human, UniProt Q14116 37-193, biotinylated (D-biotinyl-epsilon-aminocaproic acid NHS ester, 2:1 molar ratio of biotin to rhIL-18) in the BIAcore assay; not said to be biotinylated in the KG-1 assay); test: cell-based or functional assay
[2] = biological target: T1, recombinant human IL-18 (rhIL-18); test: SPR (BIAcore), biotinylated rhIL-18 on streptavidin chip, antibody in solution
Procedure: Real-time binding interactions between ligand (biotinylated recombinant human IL-18 (rhIL-18) immobilized on a biosensor matrix) and analyte (antibodies in solution) were measured by surface plasmon resonance (SPR) using the BIAcore system (Pharmacia Biosensor, Piscataway, N.J.). The system utilizes the optical properties of SPR to detect alterations in protein concentrations within a dextran biosensor matrix. Proteins are covalently bound to the dextran matrix at known concentrations. Antibodies are injected through the dextran matrix and specific binding between injected antibodies and immobilized ligand results in an increased matrix protein concentration and resultant change in the SPR signal.
Biotinylated rhIL-18 to be immobilized on the matrix via streptavidin was diluted in PBS running buffer (Gibco Cat. No. 14190-144, Gibco BRL, Grand Island, N.Y.) supplemented with 0.05% (BIAcore) surfactant P20 (Pharmacia BR-1000-54, Pharmacia Biosensor, Piscataway, N.J.). To determine the capacity of rhIL-18-specific antibodies to bind immobilized rhIL-18, a binding assay was conducted as follows. Aliquots of biotinylated rhIL-18 (25 nM; 10 μl aliquots) were injected through the streptavidin-coupled dextran matrix at a flow rate of 5 μl/min. Before injection of the protein and immediately afterward, PBS buffer alone flowed through each flow cell. The net difference in signal between baseline and approximately 30 sec. after completion of biotinylated rhIL-18 injection was taken to represent the binding value. Direct rhIL-18-specific antibody binding to immobilized biotinylated rhIL-18 was measured. Antibodies (20 μg/ml) were diluted in PBS running buffer and 25 μl aliquots were injected through the immobilized protein matrices at a flow rate of 5 μl/min. Prior to injection of antibody, and immediately afterwards, PBS buffer alone flowed through each flow cell. The net difference in baseline signal and signal after completion of antibody injection was taken to represent the binding value of the particular sample. […]

IC50 Value, KG-1 cell-based IL-18 neutralization assay (hIFN-gamma) [1]: 90 nM | Kd [2]: 39 nM | koff [2]: 0.00048 s⁻¹ | kon [2]: 13000 M⁻¹ s⁻¹
B1: LT28 (parent) (scFv, V domains shown)
VH: [about 100 residues not printed]DDDDYDFDYWGRGTMVTVSS
VL: QSVLTQPPSASGTPGQRVTISCSGSSSNIGINAVNWYQQLPGTAPKLLIYGNDQRPSGVPDRFSGSKSGTSASLAISGLQSEDEADYYCAAWDDSLSGPVFGGGTKLTVLG
notes: Tested as single-chain Fv; also called single-chain anti-IL-18 antibody LT28
